The other results are listed elsewhere or left out. Each Rep nickase domain was tested in vitro on the same pool of single strands for 1 h at 37 °C with 3 µM enzyme; only the middle of the 90-letter strands is printed. Values are log2 of uncut reads against the no-enzyme pool; strong cutting gives strongly negative numbers. There is no active / inactive call. Counts are relative to all reads, so uncut sequences can rise above 0 when many others are cut.
Tests used:
Test in all cases: uncleaved DNA left, log2 of reads against the no-enzyme library (log2 ratio); higher = less cleavage (more negative = more Rep cleavage of the k-mer); sequences stand for … in CTCGTCCG…ACCGGAGA
[1] = test system: T1, Rep nickase domain of Muscovy duck circovirus
T1 sequence (residues 1-111, tag not shown): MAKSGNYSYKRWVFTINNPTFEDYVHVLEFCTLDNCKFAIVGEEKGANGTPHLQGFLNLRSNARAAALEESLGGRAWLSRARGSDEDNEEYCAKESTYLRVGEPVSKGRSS
Experimental: (§1)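 A pool of 90-nt single-stranded DNAs with seven random bases just before the constant AC of the nick site (name = the seven bases) was cut by 3 µM recombinant His6-SUMO-tagged Rep nickase domain (300 nM DNA, 50 mM HEPES pH 8.0, 50 mM NaCl, 1 mM MnCl2, 1 h, 37 °C, three replicates). Uncut DNA was amplified and sequenced.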

[2] = test system: T2, Rep nickase domain of banana bunchy top virus
T2 sequence (residues 1-94, tag not shown): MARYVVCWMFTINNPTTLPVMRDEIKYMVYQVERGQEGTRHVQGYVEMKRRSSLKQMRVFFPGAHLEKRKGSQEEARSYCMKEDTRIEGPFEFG
Experimental: as §1

[3] = test system: T3, Rep nickase domain of cabbage leaf curl virus
T3 sequence (residues 1-116, tag not shown): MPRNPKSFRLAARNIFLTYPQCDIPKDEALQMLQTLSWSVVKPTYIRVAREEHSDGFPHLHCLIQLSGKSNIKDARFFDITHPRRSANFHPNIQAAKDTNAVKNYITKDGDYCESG
Experimental: as §1

[4] = test system: T4, Rep nickase domain of chickpea chlorotic dwarf virus
T4 sequence (residues 1-124, tag not shown): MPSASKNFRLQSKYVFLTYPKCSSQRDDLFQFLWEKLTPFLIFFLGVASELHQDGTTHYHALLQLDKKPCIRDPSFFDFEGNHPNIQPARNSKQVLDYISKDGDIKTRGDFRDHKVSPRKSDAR
Experimental: as §1

[5] = test system: T5, Rep nickase domain of faba bean necrotic yellows virus
T5 sequence (residues 1-98, tag not shown): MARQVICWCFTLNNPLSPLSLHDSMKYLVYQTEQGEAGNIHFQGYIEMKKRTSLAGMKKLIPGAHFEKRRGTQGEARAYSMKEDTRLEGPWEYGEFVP
Experimental: as §1

[6] = test system: T6, Rep nickase domain of maize striate mosaic virus
T6 sequence (residues 1-117, tag not shown): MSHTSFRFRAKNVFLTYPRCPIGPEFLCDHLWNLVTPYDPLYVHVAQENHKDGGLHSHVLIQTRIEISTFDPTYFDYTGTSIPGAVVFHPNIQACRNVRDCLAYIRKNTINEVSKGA
Experimental: as §1

[7] = test system: T7, Rep nickase domain of porcine circovirus 2
T7 sequence (residues 2-116, tag not shown): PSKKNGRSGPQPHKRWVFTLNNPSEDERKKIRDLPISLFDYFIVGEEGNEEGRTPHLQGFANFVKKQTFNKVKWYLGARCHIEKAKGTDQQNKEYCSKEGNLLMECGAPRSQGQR
Experimental: as §1

[8] = test system: T8, Rep nickase domain of tomato yellow leaf curl virus
T8 sequence (residues 1-136, tag not shown): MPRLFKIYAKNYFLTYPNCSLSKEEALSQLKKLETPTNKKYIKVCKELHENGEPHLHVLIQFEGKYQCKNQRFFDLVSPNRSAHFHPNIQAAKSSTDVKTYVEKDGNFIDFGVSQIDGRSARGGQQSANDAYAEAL
Experimental: as §1

[9] = test system: T9, Rep nickase domain of wheat dwarf virus
T9 sequence (residues 1-137, tag not shown): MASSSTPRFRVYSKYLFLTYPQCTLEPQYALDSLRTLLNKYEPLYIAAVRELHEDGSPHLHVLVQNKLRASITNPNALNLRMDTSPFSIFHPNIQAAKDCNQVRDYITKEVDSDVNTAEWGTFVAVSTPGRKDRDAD
Experimental: as §1

Sequence	uncleaved DNA left (log2) [1]	uncleaved DNA left (log2) [2]	uncleaved DNA left (log2) [3]	uncleaved DNA left (log2) [4]	uncleaved DNA left (log2) [5]	uncleaved DNA left (log2) [6]	uncleaved DNA left (log2) [7]	uncleaved DNA left (log2) [8]	uncleaved DNA left (log2) [9]
AGGGTGA	-0.00315	-0.0398	0.0814	0.643	0.0446	0.736	0.14	-0.0585	-0.0247
GTCGGTA	0.13	0.162	0.361	0.877	0.0439	1.49	0.0643	0.13	0.0915
AAAAAGT	0.0692	-0.009	-0.786	-2.08	0.0316	-1.17	-0.514	0.0535	-0.216
ATGCATG	0.105	0.00538	-0.334	-0.392	0.0683	-0.751	0.234	-0.0127	-0.0879
CATTCGG	-0.00628	-0.0672	0.145	0.585	-0.0148	0.0944	0.203	-0.0515	-0.0388
GTCGTCT	0.0694	-0.0341	0.299	0.534	-0.109	1.44	-0.0504	-0.0054	-0.0679
CATTGCC	-0.0556	-0.0612	-0.602	0.59	0.152	-0.194	-0.237	0.186	-0.0787
GTTTTAT	0.00431	0.0321	0.243	0.766	-0.057	1.74	0.0188	-0.0348	0.0484
ACATGAA	0.0109	0.0165	-0.232	-0.198	0.0518	-0.789	0.154	-0.0397	-0.11
TCAGACA	0.0196	0.074	0.346	-0.668	-0.0367	0.461	0.0894	-0.0331	0.0222
CGATAAG	-0.0952	0.0596	-0.661	-0.196	0.055	-0.944	0.208	0.136	-0.0302
CCGGAAA	-0.06	0.00324	0.166	0.385	-0.128	0.13	0.0776	-0.0893	-0.127
CTCTGTT	-2.55	-0.683	-1.1	-2.57	-0.0788	-0.633	-3.09	-0.0122	-0.497
ATATGCC	-0.0924	-0.124	-0.535	-0.659	-0.00518	-1.11	0.112	0.0106	-0.196
TACTCGA	-0.135	-0.123	-0.682	-1.32	-0.0197	-1.02	-0.351	-0.0503	-0.14
CCTAGCT	0.107	-0.143	-0.196	-0.429	-0.0152	-0.695	0.113	-0.0518	-0.0329
GCGCGGA	0.175	0.225	0.0413	0.305	0.143	0.109	0.184	0.151	0.0788
TGGATGG	0.0141	-0.0278	0.234	0.494	-0.0084	0.156	0.0169	-0.138	-0.00382
GGTTAAA	0.0433	0.115	0.433	1.08	0.0526	1.68	0.0443	0.0572	0.0707
ACGTCCC	-0.127	-0.0758	-0.155	-0.0173	-0.225	-0.333	-0.128	-0.108	-0.17

Sequence	uncleaved DNA left (log2) [1]	uncleaved DNA left (log2) [2]	uncleaved DNA left (log2) [3]	uncleaved DNA left (log2) [4]	uncleaved DNA left (log2) [5]	uncleaved DNA left (log2) [6]	uncleaved DNA left (log2) [7]	uncleaved DNA left (log2) [8]	uncleaved DNA left (log2) [9]
CACCAGC	0.0609	0.101	-0.518	-0.575	0.0558	-0.971	0.00679	0.14	0.00875
CGTGATA	-0.0577	-0.0565	0.105	0.16	-0.00661	0.876	-0.14	0.0118	-0.0354
ATGGGGC	0.0854	0.00805	0.531	1.14	0.144	1.01	0.342	0.165	0.0011
TTAGTTA	0.0689	-0.141	0.136	-0.94	0.00858	0.17	-0.164	0.0389	-0.0484
AAGTGCT	-0.572	-1.41	-0.484	-1.06	-1.19	-0.684	-3.98	-0.011	0.00841
GGAACAA	0.033	0.0549	0.831	2	-0.0685	2.15	0.146	-0.0271	0.086
GCTGCGG	-0.154	-0.219	-0.451	-0.46	-0.156	-0.577	-0.0723	-0.241	-0.197
GTATAAG	0.156	0.194	-0.534	-0.389	0.0469	-0.784	0.193	0.176	0.0203
GAATATG	0.177	0.104	-0.237	-0.255	0.0754	-0.752	0.115	0.132	0.0547
TGCATTG	-0.00689	0.021	-0.376	-0.313	-0.0302	-0.58	0.0669	0.064	0.00619
GCCATTC	-0.0216	0.024	-0.18	0.351	-0.00897	-0.412	0.0982	0.0443	0.0191
GCAGTAG	0.00598	0.0576	-0.625	-0.46	-0.00174	-1.05	0.13	-0.00292	-0.0746
GAACGGC	0.0587	0.0657	0.459	1.13	0.0549	1.49	0.122	0.0148	0.0709
CGCACAA	0.0107	0.198	0.22	0.304	0.0317	-0.0712	0.0262	0.0545	0.131
TTAATAA	-0.197	-0.0829	0.0473	-0.189	-0.148	-0.234	-0.116	-0.105	-0.0768
GCATAAA	-0.0516	0.0315	0.0774	0.397	0.0127	-0.196	0.0871	0.0982	0.148
AACCGGA	-0.0216	-0.0295	0.148	0.225	-0.00616	0.0504	-0.116	-0.0516	-0.00677
CCGGTTG	-0.0744	-0.152	-0.165	0.175	0.042	0.286	0.0801	-0.297	-0.11
GGGCGAG	0.0428	0.124	0.876	1.98	-0.0891	2.22	0.317	0.0682	0.123
GTGGCTG	-0.0325	0.00328	0.218	0.821	-0.117	1.67	0.114	-0.0224	0.0312

Sequence	uncleaved DNA left (log2) [1]	uncleaved DNA left (log2) [2]	uncleaved DNA left (log2) [3]	uncleaved DNA left (log2) [4]	uncleaved DNA left (log2) [5]	uncleaved DNA left (log2) [6]	uncleaved DNA left (log2) [7]	uncleaved DNA left (log2) [8]	uncleaved DNA left (log2) [9]
ACGTATT	-3.33	-3.06	-1.07	-2.91	-3.15	-0.484	-3.82	-0.0555	-0.758
CGGGCGG	-0.0646	-0.0488	0.266	0.948	-0.104	1.24	-0.0296	-0.0713	-0.077
TCGAACA	0.00801	0.21	0.106	-1.28	0.154	-0.311	-0.12	0.227	0.0202
GCCTCTG	0.0145	-0.0416	-0.169	0.255	-0.0303	0.0995	0.0345	-0.132	-0.0053
CAGCACC	-0.0165	-0.0443	0.0137	-0.482	-0.0193	-0.548	-0.106	-0.087	0.0154
TCTGTGC	0.00111	0.0685	-0.478	-0.561	0.0296	-1.1	0.0856	-0.0442	-0.221
TTTCAAA	0.0415	0.0755	0.222	0.334	0.201	0.215	0.115	0.121	0.104
TCACGTA	0.0325	-0.0284	0.131	-0.742	0.0734	-0.721	0.0321	0.0255	-0.0234
AAACCGA	0.0387	0.0243	-0.282	-0.879	0.185	-0.846	0.083	0.104	-0.0375
TGTATGA	0.00415	-0.0662	0.112	0.31	0.0297	-0.234	0.0522	-0.0706	-0.0486
ATACGTC	0.0969	0.00203	-0.0979	-0.823	-0.0377	-0.965	-0.0144	-0.0689	-0.0924
TCATCGC	-0.114	-0.159	-0.695	-0.88	-0.112	-1.16	0.052	-0.0556	-0.194
TGCTCAG	0.222	0.0966	-0.417	-0.523	0.139	-0.929	0.0757	0.205	-0.00446
CCTCCGG	-0.0704	-0.124	0.345	1.05	-0.147	1.26	0.0199	-0.122	-0.154
CCACCGA	0.00202	-0.0948	-0.458	-0.62	0.0123	-0.878	0.0914	-0.176	-0.157
TATACAT	0.0283	-0.13	0.253	-0.0209	0.0788	0.898	-0.363	0.0888	0.0964
ATTGAGC	0.00729	0.0549	-0.342	-0.368	0.0778	-0.835	0.15	-0.0521	-0.122
CGCATGA	0.0753	-0.0223	0.0686	0.235	-0.0183	-0.141	0.195	-0.0131	-0.00653
TTGCTTC	0.0674	-0.101	-0.418	-0.764	-0.0815	-1.12	-0.0779	-0.0318	-0.158
AGAGCGA	0.00283	-0.0388	-0.295	-0.232	-0.0414	-0.876	-0.118	-0.057	-0.164
